The source gives many values for each of these; only a part stands here.
Tested on: 766 cancer cell lines
Assay: Large-scale cell-line viability measurements (766 cancer cell lines, 72 h, AUC)
Type: cell-based, human
Method: Cell lines were treated for 72 hours with concentrations ranging from 66.4 μM-2 nM in 2-fold step dilutions.
To characterize cellular sensitivity to DNMDP further, 766 genomically characterized cancer cell lines were screened for DMNDP sensitivity at concentrations ranging from 66.4 μM to 2 nM in 2-fold dilution steps for 72 hours. From these cell lines, 22 cell lines were categorized as sensitive with a robust Z-score lower than −4, which represented multiple lineages including multiple melanoma cell lines, amongst others (Table 1).
The sensitivity of […] cancer cell lines (CCLs) was measured drawn from 23 different lineages to DNMDP. Each cell line was plated in its preferred media in white opaque 1536-plates at a density of 500 cells/well. After incubating overnight, DNMDP was added by acoustic transfer at 16 concentrations ranging from 66.4 μM-2 nM in 2-fold steps in duplicate (Labcyte Echo 555, Labcyte Inc., Sunnyvale, Calif.). After 72 hours treatment, cellular ATP levels were measured as a surrogate for viability (CELLTITERGLO®, Promega Corporation, Madison, Wis.) according to manufacturer's protocols using a ViewLux Microplate Imager (PerkinElmer, Waltham, Mass.) and normalized to background (media-only) and vehicle (DMSO)-treated control wells.
Concentration response curves were fit using nonlinear fits to 2- or 3-parameter sigmoid functions through all 16 concentrations with the low-concentration asymptote set to the DMSO-normalized value, and an optimal 8-point dose curve spanning the range of compound-sensitivity was identified. The area under the 8-point dose curve (AUC) was computed by numeric integration as a metric for sensitivity for further analysis. Similar sensitivity measurements have been obtained for a collection of 480 other compounds, enabling analyses that identify cell lines responding uniquely to DNMDP (see Broad Institute Cancer Therapeutics Response Portal, a dataset to identify comprehensively relationships between genetic and lineage features of human cancer cell lines and small-molecule sensitivities for complete list of compounds).

[1] = cell line CAMA1, BREAST, 72 hours
[2] = cell line CAPAN2, PANCREAS, 72 hours
[3] = cell line CCFSTTG1 (CENTRAL NERVOUS SYSTEM)
[4] = cell line CHP126 (AUTONOMIC GANGLIA)
[5] = cell line CL11 (LARGE INTESTINE)
[6] = cell line CMK (HAEMATOPOIETIC AND LYMPHOID TISSUE)
[7] = cell line COLO201 (LARGE INTESTINE)
[8] = cell line COLO205 (LARGE INTESTINE)
[9] = cell line COLO680N (OESOPHAGUS)
[10] = cell line COLO684 (ENDOMETRIUM)
[11] = cell line CORL95, LUNG, 72 hours
[12] = cell line D283MED (CENTRAL NERVOUS SYSTEM)
[13] = cell line DAOY (CENTRAL NERVOUS SYSTEM)
[14] = cell line DEL (HAEMATOPOIETIC AND LYMPHOID TISSUE)
[15] = cell line DETROIT562 (UPPER AERODIGESTIVE TRACT)
[16] = cell line DLD1 (LARGE INTESTINE)
[17] = cell line DMS79, LUNG, 72 hours
[18] = cell line ECC10, STOMACH, 72 hours
[19] = cell line EFE184, ENDOMETRIUM, 72 hours
[20] = cell line EM2, HAEMATOPOIETIC AND LYMPHOID TISSUE, 72 hours
[21] = cell line FADU (UPPER AERODIGESTIVE TRACT)

`CCN(CC)c1ccc(C2=NNC(=O)CC2C)cc1[N+](=O)[O-]` (centres unmarked) [DNMDP, 6-(4-(diethylamino)-3-nitrophenyl)-5-methyl-4,5-dihydropyridazin-3(2H)-one] was tested, and the “Robust Z-score” value (cell line CALU1, LUNG, 72 hours) was 1.243, the “DNMDP AUC” value (cell line CALU3 (LUNG)) was 6.7536 and the “Robust Z-score” value (cell line CALU3 (LUNG)) was 0.1249. The “DNMDP AUC” value (cell line CALU6 (LUNG)) was 6.5932, the “Robust Z-score” value (cell line CALU6 (LUNG)) was −0.04351 and the “DNMDP AUC” value [1] was 7.2254. For the same molecule, the “Robust Z-score” value [1] was 0.6201, the “DNMDP AUC” value (cell line CAPAN1 (PANCREAS)) was 6.786 and the “Robust Z-score” value (cell line CAPAN1 (PANCREAS)) was 0.1589. For the same molecule, the “DNMDP AUC” value [2] was 7.6273, the “Robust Z-score” value [2] was 1.042 and the “DNMDP AUC” value [3] was 7.0119. For the same molecule, the “Robust Z-score” value [3] was 0.396, the “DNMDP AUC” value (cell line CFPAC1 (PANCREAS)) was 6.8671 and the “Robust Z-score” value (cell line CFPAC1 (PANCREAS)) was 0.244. For the same molecule, the “DNMDP AUC” value [4] was 6.7459, the “Robust Z-score” value [4] was 0.1168 and the “DNMDP AUC” value [5] was 6.711. The “Robust Z-score” value [5] was 0.08014, the “DNMDP AUC” value [6] was 6.7483 and the “Robust Z-score” value [6] was 0.1193. For the same molecule, the “DNMDP AUC” value [7] was 6.752, the “Robust Z-score” value [7] was 0.1232 and the “DNMDP AUC” value [8] was 6.7052. For the same molecule, the “Robust Z-score” value [8] was 0.07405, the “DNMDP AUC” value [9] was 6.8864 and the “Robust Z-score” value [9] was 0.2642. The “DNMDP AUC” value [10] was 6.993, the “Robust Z-score” value [10] was 0.3761 and the “DNMDP AUC” value (cell line COLO783 (SKIN)) was 6.778. For the same molecule, the “Robust Z-score” value (cell line COLO783 (SKIN)) was 0.1505, the “DNMDP AUC” value (cell line COLO792 (SKIN)) was 6.7997 and the “Robust Z-score” value (cell line COLO792 (SKIN)) was 0.1732. The “DNMDP AUC” value (cell line CORL88 (LUNG)) was 6.7915, the “Robust Z-score” value (cell line CORL88 (LUNG)) was 0.1646 and the “DNMDP AUC” value [11] was 8.5762. For the same molecule, the “Robust Z-score” value [11] was 2.038, the “DNMDP AUC” value [12] was 6.857 and the “Robust Z-score” value [12] was 0.2334. The “DNMDP AUC” value (cell line DANG (PANCREAS)) was 6.8825, the “Robust Z-score” value (cell line DANG (PANCREAS)) was 0.2602 and the “DNMDP AUC” value [13] was 6.6343. For the same molecule, the “Robust Z-score” value [13] was −0.0003674, the “DNMDP AUC” value [14] was 6.7494 and the “Robust Z-score” value [14] was 0.1204. For the same molecule, the “DNMDP AUC” value [15] was 6.7465, the “Robust Z-score” value [15] was 0.1174 and the “DNMDP AUC” value [16] was 6.6751. The “Robust Z-score” value [16] was 0.04246, the “DNMDP AUC” value [17] was 7.1572 and the “Robust Z-score” value [17] was 0.5485. For the same molecule, the “DNMDP AUC” value (cell line DMS114 (LUNG)) was 6.6335, the “Robust Z-score” value (cell line DMS114 (LUNG)) was −0.001207 and the “DNMDP AUC” value (cell line DMS273 (LUNG)) was 7.0958. For the same molecule, the “Robust Z-score” value (cell line DMS273 (LUNG)) was 0.484, the “DNMDP AUC” value (cell line DMS454 (LUNG)) was 7.019 and the “Robust Z-score” value (cell line DMS454 (LUNG)) was 0.4034. For the same molecule, the “DNMDP AUC” value (cell line DU4475 (BREAST)) was 6.742, the “Robust Z-score” value (cell line DU4475 (BREAST)) was 0.1127 and the “DNMDP AUC” value (cell line EBC1 (LUNG)) was 6.5617. For the same molecule, the “Robust Z-score” value (cell line EBC1 (LUNG)) was −0.07657, the “DNMDP AUC” value [18] was 7.3182 and the “Robust Z-score” value [18] was 0.7175. The “DNMDP AUC” value (cell line ECC12 (STOMACH)) was 6.6785, the “Robust Z-score” value (cell line ECC12 (STOMACH)) was 0.04603 and the “DNMDP AUC” value [19] was 7.1614. For the same molecule, the “Robust Z-score” value [19] was 0.5529, the “DNMDP AUC” value (cell line EFO21 (OVARY)) was 6.633 and the “Robust Z-score” value (cell line EFO21 (OVARY)) was −0.001732. For the same molecule, the “DNMDP AUC” value (cell line EFO27 (OVARY)) was 6.832, the “Robust Z-score” value (cell line EFO27 (OVARY)) was 0.2071 and the “DNMDP AUC” value [20] was 7.5755. The “Robust Z-score” value [20] was 0.9876, the “DNMDP AUC” value (cell line EN (ENDOMETRIUM)) was 6.9773 and the “Robust Z-score” value (cell line EN (ENDOMETRIUM)) was 0.3597. For the same molecule, the “DNMDP AUC” value (cell line ES2 (OVARY)) was 6.7183, the “Robust Z-score” value (cell line ES2 (OVARY)) was 0.0878 and the “DNMDP AUC” value (cell line ESS1 (ENDOMETRIUM)) was 6.7626. For the same molecule, the “Robust Z-score” value (cell line ESS1 (ENDOMETRIUM)) was 0.1343, the “DNMDP AUC” value [21] was 6.7809 and the “Robust Z-score” value [21] was 0.1535. The “DNMDP AUC” value (cell line FTC133 (THYROID)) was 6.8949 and the “Robust Z-score” value (cell line FTC133 (THYROID)) was 0.2732.

From patent US11207320B2, “Compositions and methods for cancer expressing PDE3A or SLFN12” (The Broad Institute, Inc., priority 2015, dated 2021)
